# Experimental data: PubChem BioAssay AID651820 (National Center for Advancing Translational Sciences (NCATS), 2012)
# Among all 340,000 compounds or so, about 12,000 (3.5%) were called active. Inconclusive results, whose numbers are uncertain, are shown with a selection of clear calls. The call rests on the fitted dose curve; in most records, active means well fitted inhibition curve with a large enough effect; inconclusive means small, poorly fitted or top-dose-only effect, or another doubt; inactive means no such curve, though single readings can be large or run the other way. No potency is given beside an inconclusive call; the fits are too rough.
# Test: qHTS Assay for Inhibitors of Hepatitis C Virus (HCV)
# Conditions: Huh7.5.1 HCVcc-Cre (HCVcc is cell-culture hepatitis C virus) infection, luciferase reporter, 44 h; series mostly up to 41.8 µM
# Summary of the method: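 Seed cells (1,000/well) for 4 h; treat with compound and infect with HCVcc-Cre, moi about 0.5. Incubate 44 h, then detect luciferase activity.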
# Potency means the concentration at half of the fitted maximal effect; tags describe the fitted curve by direction and shape.
row,Structure (SMILES),Potency
1,Fc1ccc(-c2[nH]ncc2CN(CC2CCC2)CC2CCCO2)c(F)c1 (configuration not stated),inactive
2,CCOC(=O)[C@H]1[C@H]2COc3ccc(Cl)cc3[C@@H]2N2C(=O)CN(Cc3ccccc3)C(=O)[C@@]12C,"inconclusive [inhibitor, single point]"
3,O=C(NCc1ccco1)c1cc2cc3ccc(Cl)cc3nc2o1,"inconclusive [inhibitor, single point]"
4,CCOc1ccc(Br)cc1S(=O)(=O)N1CCC(C(=O)O)CC1,inactive
5,O=C(OCc1ccccc1)c1cccnc1Cl,"inconclusive [inhibitor, full curve, poor fit]"
6,Fc1ccc2[nH]c3c(N4CCN(c5ccccc5)CC4)ncnc3c2c1,active: 7.94 µM
7,O=C(COc1cccc(C(F)(F)F)c1)Nc1cccc(S(=O)(=O)NC2=NCCCCC2)c1,"inconclusive [inhibitor, single point]"
8,CCCCN1CC(=O)N2[C@H]3c4ccccc4OC[C@@H]3[C@H](c3ccccc3)[C@]2(C)C1=O,"inconclusive [inhibitor, single point]"
9,COc1ccc(C(=O)OCC(=O)c2ccc(C)c(S(=O)(=O)N3CCOCC3)c2)cc1OC,"inconclusive [inhibitor, single point]"
10,COc1ccccc1N(CC(=O)N/N=C/c1c(O)ccc2ccccc12)S(C)(=O)=O,"inconclusive [inhibitor, single point]"
11,CCOc1ccc(-c2nc(N)ncc2Oc2ccc(OC)cc2)c(O)c1,active: 14.1 µM
12,O=C(NC1CC1)C1CCN(C2CCN(C(=O)Cc3ccc4c(c3)OCO4)CC2)CC1,inactive
13,Cc1ccc(S(=O)(=O)N2CCN(C(=O)c3cc(=O)[nH]c4ccccc34)CC2)c(C)c1,active: 14.1 µM
14,CCOC(=O)c1oc2ccccc2c1N,inactive
15,CC(C)n1cnc2c(Nc3cccc(Cl)c3)nc(NCCCO)nc21,active: 11.2 µM
16,O=C(C[C@H]1C[C@H](C(=O)N2CCOCC2)[C@@]2(CCC3CCCC3)c3[nH]c4cc(-c5ccco5)ccc4c3CCN2C1=O)NCc1cccc(C(F)(F)F)c1,"inconclusive [inhibitor, single point]"
17,COc1ccc(C(=O)Oc2cc3c4c(c2)C(C)=CC(C)(C)N4C(=O)C3=O)cc1OC,"inconclusive [inhibitor, partial curve]"
18,COc1ccc(Cl)cc1Nc1nc(-c2sc(NC(=O)CC(C)C)nc2C)cs1,active: 11.2 µM
19,Cc1cc(C)nc(NC(=O)c2cccc([N+](=O)[O-])c2)c1,"inconclusive [inhibitor, partial curve]"
20,COc1ccc(C(C)=O)cc1COC(=O)c1cc(C)oc1C,"inconclusive [inhibitor, full curve]"
21,O=C(Nc1ccc2c(c1)OCCO2)N1CCN(c2ccccc2)CC1,inactive
22,N#CC(c1ccc(Cl)cc1)c1ccc2c(C(F)(F)F)cc(C(F)(F)F)nc2n1 (configuration not stated),"inconclusive [inhibitor, partial curve]"
23,O=C(Nc1ccc(S(=O)(=O)N2CCCC2)cc1)c1ccc(CN2CCOCC2)cc1,active: 6.31 µM

row,Structure (SMILES),Potency
1,Cc1c(C(=O)N2CCC(C)CC2)oc2ccc3c(c12)C(O)CC1(CCCCC1)O3 (configuration not stated),"inconclusive [inhibitor, single point]"
2,CCOC(=O)c1nnn(-c2nonc2N)c1CN1CCCCCC1,inactive
3,COCC(=O)N1CCC(Oc2ccc(C(=O)NC(C)c3nc(C)sc3C)cc2)CC1 (configuration not stated),inactive
4,Cc1cc(C)n2nc(C(=O)N(C)c3c(N)n(Cc4ccccc4)c(=O)[nH]c3=O)nc2n1,"inconclusive [inhibitor, single point]"
5,O=C(Cn1nnc(-c2ccc(S(=O)(=O)N3CCCC3)cc2)n1)Nc1ccccc1-n1cccc1,inactive
6,Nc1c(C(=O)Nc2ccccc2)nnn1-c1ccc2c(c1)OCCO2,"inconclusive [inhibitor, single point]"
7,Cc1cc(C)cc(NC(=O)N2CCC(C(=O)c3ccc(F)cc3)CC2)c1,"inconclusive [inhibitor, partial curve]"
8,CC1CCC(NC(=O)CN2C(=O)C3CCCN3c3ncc(Cl)cc32)CC1 (configuration not stated),"inconclusive [inhibitor, partial curve]"
9,Clc1cccc(-c2nc3nc4ccccc4nc3n2Cc2ccco2)c1,"inconclusive [inhibitor, single point]"
10,CCOc1ccc(CCNC(=O)COC(=O)COc2cc(C)cc(C)c2)cc1OCC,inactive
11,O=C(c1ccc(Cl)cc1)C1CCN(C(=O)NC2CCCCC2)CC1,"inconclusive [inhibitor, single point]"
12,c1csc(-c2nc(NCC3CCCO3)c3ccccc3n2)c1 (configuration not stated),"inconclusive [inhibitor, single point]"
13,COc1ccc2c(c1)-c1nc(/N=C/c3cccc(OC)c3O)sc1CC2,"inconclusive [inhibitor, single point]"
14,COc1cc(C(=O)Oc2c(CN3CCOCC3)cc(Cl)c3cccnc23)cc(OC)c1OC,"inconclusive [inhibitor, single point]"
15,O=C(c1ccc(F)cc1)c1ccc(N2CCCCC2)cc1,"inconclusive [inhibitor, partial curve]"
16,Cc1ccccc1OC(C)C(=O)Nc1cccnc1 (configuration not stated),inactive
17,NS(=O)(=O)c1ccc(CCNC(=O)c2cc(-c3ccc(Br)cc3)nc3ccccc23)cc1,"inconclusive [inhibitor, single point]"
18,CCOCCCNC(=O)c1ccc(N(C)S(=O)(=O)c2ccc(OC)cc2)cc1,inactive
19,Cc1cc(C)c(S(=O)(=O)n2ccc3ccccc32)c(C)c1,"inconclusive [inhibitor, single point]"
20,C#CC(CC)(CC)NC(=O)c1ccc(Br)s1,"inconclusive [inhibitor, single point]"
21,COC(=O)c1ccc(C2C(C#N)=C(N)Oc3cc(C)n(C)c(=O)c32)cc1 (configuration not stated),"inconclusive [inhibitor, single point]"
22,C/C(=N/NC(=O)c1cccs1)c1ccc(NC(=O)COc2ccc(Cl)cc2Cl)cc1,inactive
23,C=CCN1C2CCCC1CC(NC(=S)Nc1ccc(Cl)cc1)C2 (configuration not stated),"inconclusive [inhibitor, partial curve]"

row,Structure (SMILES),Potency
1,COc1ccc(C(=O)c2c3ccc([N+](=O)[O-])cc3[n+]([O-])n2CCCN)cc1,"inconclusive [inhibitor, partial curve]"
2,Cc1ccc(NC(=S)Nc2ccccn2)c(C)c1,"inconclusive [inhibitor, single point]"
3,CN(C(=O)COC(=O)c1cc(-c2ccccc2Cl)nc2ccccc12)C1CCS(=O)(=O)C1 (configuration not stated),inactive
4,O=C(Nc1ccc(N2CCCC2)cc1)c1ccc(Br)cc1,inactive
5,CCN(CC)C(=O)COc1ccc2c(-c3ccc(OC)cc3)cc(=O)oc2c1,"inconclusive [inhibitor, single point]"
6,COc1ccc(C(CNC(=O)c2ccc(S(=O)(=O)N(C)C)cc2)N2CCCC2)cc1 (configuration not stated),inactive
7,COc1ccc(CN(C)C(=O)COC(=O)c2c(-c3ccccc3Cl)noc2C)cc1,"inconclusive [inhibitor, partial curve, poor fit]"
8,CN1CCN(c2cc(-c3ccccc3)nc3cc(-c4ccc(F)cc4)nn23)CC1,"inconclusive [inhibitor, single point]"
9,CCc1ccc(NCc2ccc(OC)c(Cn3ccnc3)c2)cc1,"inconclusive [inhibitor, single point]"
10,CCn1c(=O)c(C(=O)Nc2nc3ccccc3[nH]2)c(O)c2ccccc21,"inconclusive [inhibitor, single point]"
11,COc1cccc(NC(=O)[C@H](Cc2c[nH]c3ccccc23)NC(=O)[C@@H]2Cc3ccccc3CN2)c1,"inconclusive [inhibitor, partial curve]"
12,Cc1cc(C)n(CCC(=O)N/N=C/c2c(O)ccc3ccccc23)n1,"inconclusive [inhibitor, single point]"
13,CCOc1ccc(NC(=O)CS(=O)(=O)c2cn(CC)c3ccccc23)cc1,"inconclusive [inhibitor, single point]"
14,Cc1ccccc1Cn1c(=O)c2c(nc3n2CCCN3Cc2ccccc2)n(C)c1=O,inactive
15,COc1ccc(CC(=O)NC2CCN(CC(=O)Nc3ccc4c(c3)OCCO4)CC2)cc1OC,"inconclusive [inhibitor, partial curve, poor fit]"
16,O=C(Cc1ccc(F)cc1)N1CCC(CC2CC(c3ccc(Cl)cc3)=NO2)(C(=O)NCC2CCCCC2)CC1 (configuration not stated),inactive
17,COc1ccc(/C=C/C(=O)NC(=S)NNC(=O)c2cccs2)cc1OC,"inconclusive [inhibitor, single point]"
18,COc1ccc(-c2c(C)[nH]n3c(=O)c(Cc4ccccc4)c(C)nc23)cc1OC,"inconclusive [inhibitor, partial curve]"
19,CCN(C[C@H]1N[C@@](CC)(C(=O)OC)[C@H]2C(=O)N(C)C(=O)[C@@H]12)C(=O)COC,inactive
20,O=C(CCl)N1N=C(c2cccs2)CC1c1ccco1 (configuration not stated),"inconclusive [inhibitor, single point]"
21,Cc1cccc(OCC(=O)Nc2ccc3c(c2)nc(CN2CCCCC2)n3C)c1,"inconclusive [inhibitor, single point]"
